Laboratory results published in the supplement of paper PMC4466236.
In all, about 33,000 sequences were measured (“E-score (dimensionless, -0.5 to 0.5)”: median about -0.058, highest 2% from about 0.35 on). This is one part of the list.

tested on: MvaT; assay: PBM 8-mer E-score (mean of HK and ME arrays) (E-score (dimensionless, -0.5 to 0.5)); higher = stronger relative binding preference; most listed sequences are background and not binding sites
How it was run: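 Reported values are rank-based E-scores, taken as the mean of two universal arrays and parsed with a custom script. Each 8-mer score falls between -0.5 and 0.5. The arrays, ME and HK, were double-stranded 60-mers with a constant 25-mer primer region and a variable 35-mer region covering all 8-mers. They were probed, by an earlier protocol, with full-length P. aeruginosa MvaT carrying an N-terminal glutathione S-transferase fusion.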

Sequence | PBM 8-mer E-score
TGGATCCA | -0.097
GGCGAAAC | -0.0209
GGTTGGCA | -0.0827
CTAAGTCA | -0.101
CATTCGTC | -0.183
ATAGCTGC | 0.0379
GCGGGCAA | -0.0254
AATTCGCC | 0.13
CTACGTGA | -0.144
CCCAACTA | 0.0767
CCCGAGAG | -0.218
AGTACGTG | 0.00872
GGTGCCCA | -0.241
ATCAACGC | -0.00753
ATACAGAG | 0.156
GCCGCAAC | -0.0726
CTTGCAAC | 0.046
GCTGACAA | -0.00171
AAAATCCC | -0.0792
GTACTAGA | -0.0314
AAGCCTGA | -0.279
GAACCTAC | -0.248
ACATCGGG | -0.12
ACTTAGTA | 0.275
CGCGGTCA | -0.275

Sequence | PBM 8-mer E-score
ACTTACAG | 0.054
ATACGCGA | 0.154
CAGTCTCG | -0.14
CTCTACTA | -0.0157
ATACAGGG | -0.012
CCGGATCA | -0.133
GTTGGCGA | -0.0995
AATACGAT | 0.207
CCGATGCA | -0.148
ATACCGCA | 0.145
CTGGTCCA | -0.192
CCTGTGCC | -0.271
GATAGCGA | -0.116
CCAGCTAG | -0.265
AGAAGAAG | -0.0887
CTCAGGCA | -0.144
CGGCTTGC | -0.279
AACACAGC | 0.0432
ATCTATAC | 0.138
CCACTCCC | -0.19
CTCAACAC | 0.0487
CAGGCGGC | -0.25
CATATCGA | 0.166
GGTTGGGA | -0.177
ACCGTACT | -0.0584

Sequence | PBM 8-mer E-score
AATCCTCT | -0.0384
CACTTCAG | -0.0275
ACACTTAT | 0.331
CTGACCCC | -0.266
ACCGTTGA | -0.17
AGCTAGCC | -0.22
CCTCAACC | -0.226
CTCTCGGC | -0.112
AAGTGGGA | -0.0974
ACTCCGTC | -0.0626
GCCCGAAC | -0.14
AGTCCCTC | -0.154
GGAAGGAA | -0.27
ACTTGTGA | 0.0507
AAGGTATG | 0.0179
ATTCGAGA | -0.0857
AGAAAGCA | -0.0897
TGAAAACA | 0.226
AACACAAG | 0.162
GGTAGTAC | -0.022
GACATCAA | -0.0722
CTCCCGCA | -0.235
ACCCACCC | -0.0608
CACTGGGA | -0.1
TAGTTCCA | 0.114

Sequence | PBM 8-mer E-score
AATATCTG | 0.207
ATTCTTCA | 0.133
AATGGTGC | -0.104
AGGGGGGA | -0.254
AGCTCCGC | -0.33
AACAAGAC | -0.0275
ACTAACGC | 0.0303
CGGTACAC | -0.0366
GACTGATA | 0.0896
AACGGCGA | -0.0359
GGGCATCA | -0.211
CTGATGTC | -0.112
ACTGAACC | 0.0517
TCGGAACA | -0.0242
GGGGCTGA | -0.275
ACTCCTAG | -0.344
ATGACACC | -0.11
AGAGTCGC | -0.266
GAGCGTCC | -0.15
AATGGACG | -0.06
CGTAGCCC | -0.198
GAAACCGC | -0.204
AATGTTGG | 0.197
ATTTAACG | 0.255
AAGGGCCT | -0.25

Sequence | PBM 8-mer E-score
ATCGATTA | 0.149
GCACTACA | -0.0628
ACGTATCT | 0.0451
CCAATGCC | -0.157
AGAAGCTG | -0.227
ACCTTAGA | -0.154
AGTAGAAC | 0.0275
ACAGATTA | 0.228
AGGATGCC | -0.261
CTAGAAGC | -0.207
CCAGTAGA | -0.136
ATCATAAC | 0.289
GGATCTTA | -0.0201
AGCATTCG | -0.0873
ATTGTCCA | 0.146
AACAATTC | 0.27
AGGTTTAG | -0.0852
CAAAAAGC | -0.0857
CGCGCGGC | -0.167
ATCTTAAC | 0.244
TATCCCGA | 0.0257
CAGGTCTC | -0.242
GAATCCCA | -0.225
TCGTTCAA | 0.064
CTATTAAA | 0.283

Sequence | PBM 8-mer E-score
CCTGGCAC | -0.123
AATTAGTG | 0.306
ATTGCTGC | -0.00394
CAACCCTC | -0.192
GGTTAACA | 0.217
CCCGGCTA | -0.0733
CGGAGTCA | -0.13
AGTATAAC | 0.36
CAGGGCCG | -0.235
ATGCTTAC | -0.0304
AACGGTAG | -0.0449
GCACTGGC | -0.204
GAAAAGCA | -0.00086
CACCAGAC | -0.186
CTTCGAAG | 0.069
GATCGTGC | -0.0176
GCAAGCAA | -0.15
AATTGGAG | 0.0968
CCGCCGCC | -0.263
ACTCGTCC | -0.147
GAGCACAA | 0.0374
CATGCGAC | -0.198
CAAATTTA | 0.22
CATAACCG | -0.052
CCCCGGCC | -0.297

Sequence | PBM 8-mer E-score
ATCTTGTG | 0.111
AAGGAAGT | -0.00637
AACAAAGC | 0.133
ATCCTCAG | -0.133
CGCCTCGA | -0.185
GCAGCATA | 0.136
ACGCAAAA | 0.167
CCCCTACA | -0.291
AGTTTCAT | 0.202
TACAGACA | 0.0794
GGTTTTAC | -0.00569
CCTTCCGA | -0.292
TGACGACA | -0.209
CCCGCGCA | -0.193
CCACCGCA | -0.0349
TACATTCA | 0.255
AGGACCGA | -0.168
CAGCGTGA | -0.0983
AGGATTTA | 0.211
ATGTTTAG | 0.212
TCTCCCAA | -0.183
GCTTCACC | -0.192
